# Assay results as given in publication PMC4336329 (PLoS ONE, 2015).
# The whole screen tested about 310,000 compounds, of which about 14,000 (4.5%) showed an effect of 50% or more. The effect is printed as a negative number. Some of the results follow.
# Target: human ether-à-go-go-related gene (hERG) potassium channel (human, UniProt Q12809)
# Experiment: primary screen, population patch clamp on CHO cells stably expressing hERG
# 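Further: peak tail current of the secondary pulse compared with the same well before compound.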
# human ether-à-go-go-related gene (hERG) potassium channel, sequence (Q12809 whole entry, looked up): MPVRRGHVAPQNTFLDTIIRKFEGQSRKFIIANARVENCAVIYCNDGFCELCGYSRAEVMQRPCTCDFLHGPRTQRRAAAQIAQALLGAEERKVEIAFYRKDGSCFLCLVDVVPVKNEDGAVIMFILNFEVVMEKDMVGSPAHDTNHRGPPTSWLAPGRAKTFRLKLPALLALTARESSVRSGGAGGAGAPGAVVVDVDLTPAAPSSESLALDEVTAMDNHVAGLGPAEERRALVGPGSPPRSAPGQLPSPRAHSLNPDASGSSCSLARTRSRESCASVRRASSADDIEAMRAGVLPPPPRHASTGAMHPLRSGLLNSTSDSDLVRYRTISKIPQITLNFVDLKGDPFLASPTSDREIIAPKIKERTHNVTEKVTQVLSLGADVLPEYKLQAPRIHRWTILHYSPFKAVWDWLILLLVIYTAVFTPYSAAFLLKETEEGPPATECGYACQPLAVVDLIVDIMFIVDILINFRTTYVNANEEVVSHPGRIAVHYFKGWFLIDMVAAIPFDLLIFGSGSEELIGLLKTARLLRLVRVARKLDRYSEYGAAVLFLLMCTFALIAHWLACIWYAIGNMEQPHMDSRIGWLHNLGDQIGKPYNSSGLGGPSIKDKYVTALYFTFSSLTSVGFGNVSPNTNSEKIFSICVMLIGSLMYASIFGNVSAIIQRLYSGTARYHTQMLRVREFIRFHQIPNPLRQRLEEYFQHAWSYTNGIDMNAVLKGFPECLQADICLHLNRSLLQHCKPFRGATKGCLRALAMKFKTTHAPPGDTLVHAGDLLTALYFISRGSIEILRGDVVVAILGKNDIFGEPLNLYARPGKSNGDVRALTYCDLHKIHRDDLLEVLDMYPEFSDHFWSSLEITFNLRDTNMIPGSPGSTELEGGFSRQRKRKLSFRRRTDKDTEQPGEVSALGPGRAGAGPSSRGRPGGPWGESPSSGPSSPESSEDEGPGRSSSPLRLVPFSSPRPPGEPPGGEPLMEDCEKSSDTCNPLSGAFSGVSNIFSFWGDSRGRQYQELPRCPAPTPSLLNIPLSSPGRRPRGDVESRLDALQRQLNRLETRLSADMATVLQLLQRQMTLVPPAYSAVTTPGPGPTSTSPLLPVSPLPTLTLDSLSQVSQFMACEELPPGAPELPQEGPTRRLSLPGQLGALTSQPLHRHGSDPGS
row,Compound,"hERG current change (%, negative = inhibition) at 10uM"
1,CC1CCN(S(=O)(=O)CCNC(=O)c2ccc(F)cc2)CC1,4.45%
2,COc1cccc(C(=O)Nc2ccc(NC(=O)c3cc4ccccc4o3)c(OC)c2)c1,14.1%
3,CCOC(=O)c1nn(-c2ccccc2)c2nnc(Cc3ccc(Cl)cc3)c(=O)n12,3.57%
4,CCn1c(SCC(=O)n2nc(C)cc2C)nnc1-c1ccc2c(c1)OCO2,-1.51%
5,CCN(CC)C(=O)CSc1nc(N)c(C(=O)Nc2ccc(OC)cc2)s1,3.63%
6,Cc1onc(-c2ccccc2)c1C(=O)Nc1sc2c(c1C#N)CCC2,1.63%
7,O=C(CC1C(=O)NCCN1C/C=C/c1ccccc1)NCCc1cnccn1 (stereo not shown),20.1%
8,COc1cccc(N(C(=O)c2ccco2)C(C(=O)NC2CCCC2)c2cccnc2)c1 (stereo not shown),-6.87%
9,Cc1onc(-c2ccc(Cl)cc2)c1-c1ccnc(SCC(=O)Nc2ccc(C(C)C)cc2)n1,10.6%
10,CCOC(=O)c1ccc(NC(=O)C(CC)(CC)C(=O)OCC)cc1,-23.3%
11,Cc1cc(NC(=O)CCC(=O)N(CC(=O)NC2CCCC2)c2cccc(C)c2C)no1,6.43%
12,ON1C2CCCCC2N(O)C1c1ccccc1F (stereo not shown),16.7%
13,COc1cccc(C2N(Cc3ccccc3)C(=O)C2(F)F)c1OC (stereo not shown),-24.2%
14,C=CCc1c(C)nc(C)nc1N/N=C/c1ccccc1O,-34.3%
15,CCN(CC)C(=O)CC(c1ccc2c(c1)OCO2)c1c(OC)cc(OC)c2c(-c3ccccc3)cc(=O)oc12 (stereo not shown),5.08%
16,Cc1cc(NC(=O)CC(F)(F)F)n(-c2ccccc2)n1,16.3%
17,COc1cc2c(cc1O)[C@H](Cc1ccc(Oc3cc(C[C@@H]4NCCc5cc(OC)c(O)cc54)ccc3O)cc1)NCC2,-8.32%
18,COc1ccc(CC(=O)NNC(=O)[C@@H]2CCCC[C@@H]2C(=O)O)cc1,8.94%
19,COc1ccc(CN(CC2CCCO2)C(=O)c2cc3sccc3n2C)c(OC)c1 (stereo not shown),-32.9%
20,Cc1cc(C)cc(-n2nnnc2SCC(=O)Nc2nc(-c3ccc(Cl)cc3)cs2)c1,19.4%
21,Cc1ccc(N2C(=O)CSC2c2cccs2)cc1 (stereo not shown),-13.2%
22,O=c1c2ccccc2nc2c3ccccc3c(NCc3ccco3)nn12,-17.8%

row,Compound,"hERG current change (%, negative = inhibition) at 10uM"
1,CCOC(=O)c1cccc(NC(=O)CSc2nnc(COc3ccccc3)n2CC)c1,-51.3%
2,Cc1cccc(N2CCN(C(=O)C3CCCN(S(=O)(=O)c4c(C)noc4C)C3)CC2)c1C (stereo not shown),-22.3%
3,N#CC1=C(N)OC2=C(C(=O)CCC2)C1C1CC=CCC1 (stereo not shown),-7.67%
4,COc1ccc(-c2csc3ncnc(N4CCN(S(=O)(=O)c5ccc(C)cc5)CC4)c23)cc1,-3.07%
5,Cc1ccc(Nc2cc(C)nc3ncnn23)c(Cl)c1,-8.02%
6,CC(=O)n1c(-c2ccccc2)c(CO)c2ccccc21,-5.05%
7,CC(OC(=O)c1cc(Cl)ccc1[N+](=O)[O-])C(=O)NC(C)c1ccc(F)cc1 (stereo not shown),-29%
8,CC1(C)C(=O)Nc2ccccc2N1C(=O)COc1ccc(S(=O)(=O)N2CCOCC2)cc1Cl,3.13%
9,COc1ccc(CN2CCCC(N3CCc4ccccc4C3)C2)c(O)c1 (stereo not shown),-60.1%
10,O=C(N/N=C\c1cccc(F)c1)c1ccc(-c2ccccc2)cc1,27%
11,O=C(Nc1ccc2c(c1)OCCO2)c1cccc(C(=O)Nc2ccc3c(c2)OCCO3)c1,17%
12,COc1ccccc1CNC(=O)CN1C(=O)NC2(CCCc3ccccc32)C1=O (stereo not shown),4.78%
13,CN(C(=O)CSc1nnc(NCc2ccccc2)s1)C1CCS(=O)(=O)C1 (stereo not shown),-0.974%
14,O=C(COC(=O)c1cccc(S(=O)(=O)N2CCc3ccccc32)c1)NCc1ccco1,21.5%
15,O=C(Cc1ccc(Cl)cc1)NCc1nc(-c2ccccc2)no1,17.7%
16,CCC(C)(C)NC(=O)C(c1ccncc1)N(C(=O)c1sc(C)nc1C)c1ccc(C)cc1 (stereo not shown),20.3%
17,O=S(=O)(c1cccc(F)c1)N1CCCN(c2ccc(C(F)(F)F)cn2)CC1,-27.3%
18,Cc1cc(=O)oc2cc(NC(=O)C3CC(=O)N(Cc4ccccc4)C3)ccc12 (stereo not shown),5.29%
19,S=C(NCc1ccc(Cl)cc1)NC1CCN(Cc2ccccc2)CC1,-41.8%
20,CCn1c(SCC(=O)Nc2nc(C)cs2)nnc1-c1ccco1,-50.8%
21,CSC1=N/C(=C\c2cccc(Cl)c2)C(=O)N1N(C)C,9.35%
